Experimental findings from the supplement of paper PMC11417369 are described below.

The list shows a part of the results.

The assay has as its system PfHDP1 homeodomain (GST-tagged). The assay can be described thus: gcPBM binding intensity (ln(normalized median fluorescence intensity)); higher = stronger DNA binding. The method in brief: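 GST-tagged P. falciparum DNA-binding domains produced in E. coli were incubated for 1 h on an Agilent 4 × 180k array of primer-extended double-stranded 36-bp intergenic genomic probes with negative controls. Binding intensity is the highest Masliner-normalised natural-log median intensity across replicate spots of either probe orientation, with bound protein detected by Alexa488 anti-GST antibody at 488 nm.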
On to “ATATTTATGTAAAAAAGTACATACAATTATATATGT [XGTACX_site3750]”, for which the “gcPBM binding intensity (ln)” value stood at 6.26.
Then “AATATCTTAGTGGATACACACATATAAATGTGTATT [CACACA_site6367]”, with 6.26; and “TTGAGCATAAAATTTGGAAACCTCAATCGGACAAAA [GTGCAC_negctrl_site84]”, with 7.91.
Then “CTTTCAATTTTTTTCTGTACCAATAAAAAATATAAA [XGTACX_site2120]”, with 6.4; and “GATATGAATATAGGTTGTACTATATATAAAGTATGT [XGTACX_site1877]”, with 6.6; and “AACGGGGGTAGTTTTATGCACACGTTTATTAATGCT [CACACA_site3173]”, with 9.56.
Then “TATATGTTAATTTTTTTTTTTTTTTTTTTTTTTATA [CACACA_negctrl_site62]”, with 5.66; and “AAAGTACAAGTATAATCACACGTGTCTATTATATAC [CACACA_site4507]”, with 6.72.
Consider “ACATGAATTTATATGTGTACTAACTATATTCTTAAA [XGTACX_site5966]”, for which the “gcPBM binding intensity (ln)” value was 6.02.
Then “TATATACAATATAGGTGTACATTTTTTTATCTATTT [XGTACX_site8431]”, with 6.56.
Then “TCTGGCATATAATATTGTACACATATATATATATAT [XGTACX_site8182]”, with 9.21.
Then “TATCTGTATTTATTCACACATATAAAATATAATTAA [CACACA_site5560]”, with 6.36; and “ATGAATAAATAGGTCACACACAAATATTTATAAATA [CACACA_site7186]”, with 6.99.
For the sequence “TCTTATATATGCTTAAATATATTATATTTATTTGAA [CACACA_negctrl_site1757]”, the “gcPBM binding intensity (ln)” value amounted to 6.54.
For the sequence “TTATTTATGATATATACACACTAACATTATTTATCC [CACACA_site6720]”, the “gcPBM binding intensity (ln)” value turned out to be 6.56.
Then “ATCATATGTATGCATACACACAAAAAATTATATATA [CACACA_site398]”, with 6.86.
Then “TATAATGATATAACAACACACATGTATGTATTATTA [CACACA_site230]”, with 6.23.
Regarding “ATAATATATTTATGTTGTACAAGGAAAATTTTGAAA [XGTACX_site3472]”, the “gcPBM binding intensity (ln)” value came to 7.63.
As to “GAAATGGAAAAATATACATGCGCATATAAATTAATA [TGCATGCA_site834]”, the “gcPBM binding intensity (ln)” value came to 7.08.
The same measure for “TTTTTGATGAAATATTATTTTCCTGACTTGGATTAA [CACACA_negctrl_site148]”: 6.27; for “TGGAGGATAGTTCACAGTACCCAGAAACTCTACGGA [XGTACX_site2560]”: 6.14; for “AACCATAAATAATTATGTACTAAAAAAAATATATAT [XGTACX_site3415]”: 6.7.
Then “CTGAATGTATATATTTGTACATATATATATATATAT [XGTACX_site5557]”, with 9.36; and “TTTTTTTTTTTTAATTAACACACATAAATATATATA [CACACA_site9077]”, with 6.43; and “GGGTATAATAAAAGCACACACAAAGATATAAATATA [CACACA_site3308]”, with 6.78.
Then “AAAAAAAAAAAACACGCATGTACATAAAAATAATCA [TGCATGCA_site142]”, with 6.52.
Consider “TTAAAATCTTGAAAAGTGCATTATCATTTTGTAACG [GTGCAC_site9447]”, for which the “gcPBM binding intensity (ln)” value came out at 7.99.
For the sequence “TATAATGATGATGATAGTACGTATGAGTTCAAAAAA [XGTACX_site3656]”, the “gcPBM binding intensity (ln)” value is 6.57.
The same measure for “TATATATTTATATATGCATGTACATTTTTATTTATT [TGCATGCA_site1048]”: 6.65; for “TTTTTAATATATAAAGATAATAATAAATAAAATTCA [CACACA_negctrl_site657]”: 5.97; for “AAAGAAATGAAATATACACACATACCTATATACATA [CACACA_site7817]”: 6.63.
As for “ATATAAAACAACGGGTGTACAAAAAAATAAATAATA [XGTACX_site4094]”, the “gcPBM binding intensity (ln)” value was 6.92.
Then “TATAGATACCTATACACACACACACGGACATATATA [CACACA_site7585]”, with 7.01; and “TTTTTCTTCTGCATTATGCACACTATAATTCGTTAA [CACACA_site2837]”, with 10.2.
Then “TTTTTATGGACTATGGTGCATTATATATAAATGAAA [GTGCAC_site9557]”, with 10.3; and “AGTATACACAGACACACACACACATATATATATATA [CACACA_site8510]”, with 9.2.
Then “TAATATTATATAAATTGTACTATTTTTTCCTTATTC [XGTACX_site5314]”, with 6.55; and “GTAAACAATTATGAACGTACATAAAATAAATGAACA [XGTACX_site7159]”, with 6.86.
For the sequence “TGTCTTTTTAAGTTTTGTACATAAATATATTTCAAA [XGTACX_site427]”, the “gcPBM binding intensity (ln)” value is 6.95.
Turning to “AAAAAAAAAAAAAATACACACACATATATATATATA [CACACA_site8698]”, the “gcPBM binding intensity (ln)” value amounted to 9.39.
The same measure for “ATATAAGTTATTTTATACAAAAAAAAAAAAAAAAAT [CACACA_negctrl_site1190]”: 6.27; for “AAGAATGTTAACGTTGCACACAAAAAAAAAGTATAC [CACACA_site8763]”: 8.39; for “CTTTCATATGTTTTAACACACACGCATATATTATAG [CACACA_site7033]”: 6.9.
Then “TATTTATGCACGCGTGCACACACATATGAAAAAAGG [CACACA_site9090]”, with 10.9; and “AATTGCTAATGGTACGAACACACATATAAAGATGCA [CACACA_site8634]”, with 6.73; and “TATACATAATATATATGTACATATATTCTTTATTTT [XGTACX_site4565]”, with 6.55.
The same measure for “AAACAATAAAAGATTACACACATATATAGCATATAT [CACACA_site1698]”: 6.82; for “ACCTTATAAAAAAAAAGTACATATATAAATAATAAA [XGTACX_site4338]”: 7.7; for “TCAAATAATTTGTTGACACACACACCCACATACATA [CACACA_site8717]”: 6.78.
On to “ATATTTTTTACTATTACACACAAGGGATTATTATTT [CACACA_site3915]”, for which the “gcPBM binding intensity (ln)” value came to 6.87.
The same measure for “TATATATATATTTTTTGTACATATTATATAATATAC [XGTACX_site5187]”: 8.42; for “GAAAGACAAATTGTGACACACACAAAAAAAAAAAAA [CACACA_site9241]”: 6.22; for “AAAAAAAAAAAAAAAAAAAAACACCCAAAAAAATAT [XGTACX_negctrl_site210]”: 7.06.
For “TTTTCATTTTTCTTTACACACATATATATATATATA [CACACA_site2236]”, the “gcPBM binding intensity (ln)” value came to 9.23.
With “ATATCAAATTCTGAAACACACAAAATTACACCTCTA [CACACA_site169]”, the “gcPBM binding intensity (ln)” value turned out to be 6.62.
Regarding “TTTTCGATATGCTTTTTTTTTCTACTGTCTTTTTAA [TGCATGCA_negctrl_site54]”, the “gcPBM binding intensity (ln)” value is 6.58.
Then “TTACTTAATAGACACACACACAAAAAAAAAAAAAAA [CACACA_site6572]”, with 6.41.
The same measure for “CACATACATAAATACACACACAAAATAATAAAATAA [CACACA_site5304]”: 6.69; for “CAAAAATATTATTATAGTACATAAATAATATATTTT [XGTACX_site6902]”: 6.31.
Then “TCATTTATTGAGGAATGTACACGTAAAATTTAATAA [XGTACX_site4086]”, with 6.76; and “ATATATATTATAAAATGTACAAATGTTATATAAAAT [XGTACX_site4750]”, with 7.02; and “ATTTTTTTTTTTTTTTTCTTTTTTCTTCTTTTTTTT [CACACA_negctrl_site1223]”, with 5.98.
As to “TTTTTTTTTTTTTTATGTACATATATATATTTTATT [XGTACX_site6915]”, the “gcPBM binding intensity (ln)” value was determined as 6.59.
Then “ACCTTATTTAGTTATAGTACACAAAGTATTAAACAT [XGTACX_site8418]”, with 7.64; and “TTTTTTTTTTTCTTCACACACAGTACTACTATTTAT [CACACA_site2409]”, with 6.56.
Then TATATATATTTTTGTGTGCACTATAATATGAAAATA, with 10.3; and “GCGAATAATATGGACATACACACATATACATACATA [CACACA_site2115]”, with 6.97.
The same measure for “TTACATATTATACGAAGTACGTACAAATACTTATAT [XGTACX_site8598]”: 6.53; for “TTGCATTGTCCATGCGCACACACTACTAGAATAATA [CACACA_site3678]”: 7.06.
As to “TTTTTTTTTTTTTTTTTTAAACACCTCAAAAAAAAA [CACACA_negctrl_site807]”, the “gcPBM binding intensity (ln)” value came to 6.18.
In the case of “TAAAGGAAATAAAAAACATGCAAATATGAAATATAT [TGCATGCA_site745]”, the “gcPBM binding intensity (ln)” value came out at 6.74.
The same measure for “AATTATAAATTGGACACACACATAAAAAATATGTAC [CACACA_site221]”: 6.4; for “TAAAAAAAAACATGTGCACACGTTTTATCTACATAA [CACACA_site2336]”: 10.8.
On to “ATACATAATAACTCCTGTACTTAAAAATGTATATAT [XGTACX_site1071]”, for which the “gcPBM binding intensity (ln)” value is 6.52.
Then “AATGTATTATGTCTTCGTACACATAAATAAATAAAT [XGTACX_site4004]”, with 6.41.
Then “TATATAATTATTTATTGTACACTCAAATCGATAAGG [XGTACX_site3216]”, with 6.98; and “ATCTTGAAGATTATTTGTACACAAAAGTTAAAATAT [XGTACX_site242]”, with 6.46; and “GGATTAATATATTTACCACACACCCATTTCGATTTT [CACACA_site9200]”, with 6.68.
Then “ATATAAATATATTTTACACACAATGGAGAAAAAAAT [CACACA_site6450]”, with 6.6.
On to “TATTTATAAATATAAACACACAACATTCTATGCATA [CACACA_site3243]”, for which the “gcPBM binding intensity (ln)” value turned out to be 6.48.
On to “AACGAACACTATTACACACATACATACATATGTATG [CACACA_site1859]”, for which the “gcPBM binding intensity (ln)” value was 6.83.
As to “TTGTTTATTTGTAAAGCTAACAAGAAATGTGAATAT [CACACA_negctrl_site931]”, the “gcPBM binding intensity (ln)” value came to 6.74.
The same measure for “TTATTATTATAAAATTGTACTTGGTATATTAACATA [XGTACX_site5829]”: 6.06; for “TATACATAAAAATGATGTACATATAATATATATATA [XGTACX_site3863]”: 8.24; for “GTCAAAAGTTTTTAAGGTACACTTATTTTATTATAA [XGTACX_site7004]”: 6.17.
Then “ATGTAATATATGCGGAAATATATTCACAAGACGTCA [CACACA_negctrl_site373]”, with 6.36; and “GAAAAAAAATCCAAGATGCACTATTATTACAAAAAT [GTGCAC_site9516]”, with 8.05; and “ACCTTTATTGTATGAACACACATAAGCTGATACATC [CACACA_site4028]”, with 7.07.
